# Whole data set: some 110,000 compounds, median “z-score” near -0.1, cut for the highest 2% near 2. The list shows a part of the results.
# Target: Metabotropic glutamate receptor 8 (Rattus norvegicus) (UniProt P70579)
# Experiment: rat mGluR8 modulators via GIRK flux, primary screen, cell-based, thallium flux, HTS (AID 488969)
# Conditions: HEK293 rat mGluR8, GIRK (G protein-gated inwardly rectifying potassium channel) thallium flux, FluoZin2; at 10 µM; stronger effect = higher value; submaximal glutamate (EC20) added with thallium
# UniProt P70579, sequence (P70579 whole entry, looked up): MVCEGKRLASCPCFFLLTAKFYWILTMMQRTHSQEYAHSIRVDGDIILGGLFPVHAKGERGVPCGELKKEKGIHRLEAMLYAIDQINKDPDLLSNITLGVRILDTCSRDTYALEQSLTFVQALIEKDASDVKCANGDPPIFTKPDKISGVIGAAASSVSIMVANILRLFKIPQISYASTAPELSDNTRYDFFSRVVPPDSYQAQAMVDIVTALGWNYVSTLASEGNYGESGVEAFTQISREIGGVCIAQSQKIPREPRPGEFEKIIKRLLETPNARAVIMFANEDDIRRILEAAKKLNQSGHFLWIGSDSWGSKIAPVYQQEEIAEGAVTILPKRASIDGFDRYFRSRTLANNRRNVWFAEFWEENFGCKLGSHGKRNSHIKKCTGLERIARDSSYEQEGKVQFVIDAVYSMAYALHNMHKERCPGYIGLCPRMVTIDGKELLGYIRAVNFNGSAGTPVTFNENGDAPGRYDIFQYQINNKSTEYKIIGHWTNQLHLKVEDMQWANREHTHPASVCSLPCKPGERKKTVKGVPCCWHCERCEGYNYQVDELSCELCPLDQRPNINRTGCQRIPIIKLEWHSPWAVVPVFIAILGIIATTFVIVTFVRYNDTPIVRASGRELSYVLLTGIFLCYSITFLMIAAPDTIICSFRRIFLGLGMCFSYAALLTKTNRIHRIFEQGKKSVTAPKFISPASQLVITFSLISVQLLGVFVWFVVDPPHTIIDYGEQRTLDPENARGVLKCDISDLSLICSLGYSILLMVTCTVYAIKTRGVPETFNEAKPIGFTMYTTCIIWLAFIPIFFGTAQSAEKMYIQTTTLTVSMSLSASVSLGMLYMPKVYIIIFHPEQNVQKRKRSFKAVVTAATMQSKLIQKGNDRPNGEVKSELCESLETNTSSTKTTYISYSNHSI
row,SMILES,z-score
1,CCOc1cc(C(=O)CCC(=O)OCC(=O)N2c3ccccc3NC(=O)C2(C)C)ccc1O,-0.428
2,CC1=CC(C)(C)n2c(O)c(N=NC(N)=S)c3c(C)ccc1c32,1.1
3,NS(=O)(=O)c1ccc(NC(=O)c2cc(-c3cccs3)nc3ccccc23)cc1,-0.204
4,CCOC(=O)c1nn(-c2ccccc2C)c2nc(-c3ccc(Cl)cc3)c(C#N)c(=O)n12,-0.206
5,C=CCOC(=O)C1=C(C)Nc2ncnn2C1c1cc(Br)ccc1F (stereo not given),-0.0321
6,COC(=O)CC1SCCNC1=O (stereo not given),0.961
7,Cc1ccc(OC(=O)c2ccc(Br)o2)cc1,-0.171
8,Cc1ccc(S(=O)(=O)c2c(C)nn(-c3ccccc3)c2OC(=O)c2ccco2)cc1,-0.0111
9,O=C(O)c1cccc(NS(=O)(=O)c2cccc3nsnc23)c1,-0.226
10,O=C(CSc1ccccc1)Nc1ccc(S(=O)(=O)NCC2CCCO2)cc1 (stereo not given),-0.21
11,Cc1cccc(C)c1NC(=O)NC1(C(=O)NCCCN2CCOCC2)CCCCC1,-0.375
12,COCCCNC(=O)c1cc2c(=O)n3cc(C)ccc3nc2nc1NCC1CCCO1 (stereo not given),-0.177
13,Cc1ccc(NC(=O)C(CC(C)C)NC(=O)C2CCC(C)CC2)nc1 (stereo not given),-0.935
14,Cc1csc(NC(=O)CCC(=O)N(CC(=O)NC2CCCC2)Cc2ccco2)n1,1.55
15,O=C(/C=C/Nc1ccccc1)c1cnc(-c2ccccc2)s1,0.0836
16,Cc1occc1C(=O)Nc1cccc(/C=C/C(=O)O)c1,-0.0738
17,O=C(CSc1ccc(-c2ccco2)nn1)c1ccc(F)cc1,-0.0218
18,CC(=O)NCC(=O)OCC(=O)c1ccc2ccccc2c1,-0.577
19,CC(C)OC(=O)c1cc(NC(=O)C2C3CCC(O3)C2C(=O)O)cc(C(=O)OC(C)C)c1 (stereo not given),-0.293
20,Cc1ccc(S(=O)(=O)N(C)c2ccc(C(=O)N3CCC(C(N)=O)CC3)cc2)cc1,-0.841
21,COc1ccc(N2CCN(C(=O)C(C)(C)Oc3ccc(Cl)cc3)CC2)cc1,0.258
22,O=S(=O)(NC1CCCCC1)c1ccc(-c2csnn2)s1,-0.711
23,Cc1cc(C(=O)NCc2ccco2)on1,-0.514
24,CC(=O)c1cc(C#N)c(SCc2ccc(F)cc2)nc1C,-0.343

row,SMILES,z-score
1,CCOc1ccc(NC(=O)[C@@H](NC(=O)c2ccccc2)[C@@H](C)CC)cc1,0.512
2,COc1cccc(-c2cc(C(=O)Nc3c(C)n(C)n(-c4ccccc4)c3=O)no2)c1,-0.312
3,O=C(CSc1ccc2nnc(-c3ccc(F)cc3)n2n1)N1CCCc2ccccc21,-0.861
4,CSc1ccccc1C(=O)Nc1cccc(N(C)S(C)(=O)=O)c1,0.081
5,CC(NC(=O)COC(=O)CCNC(=O)c1ccco1)C12CC3CC(CC(C3)C1)C2 (stereo not given),-0.0782
6,CCc1[nH]c(=O)c(C#N)c2c1CCCC2,-0.0557
7,CCOC(=O)c1c(C)nc2sc3c(c2c1-c1ccc(OC)cc1)NC(c1ccc(OC)cc1)NC3=O (stereo not given),-0.241
8,CC(C)Cc1ccc(/C=C/C(=O)NC2CC2)cc1,-0.16
9,COc1nc(-c2ccc(Cl)cc2)ccc1-c1noc(-c2ccco2)n1,-0.281
10,COc1ccc(OCCNC(=O)c2ccccc2OCC(=O)N2CCCCC2)cc1,-0.424
11,O=C(O)C1C2C=CC(C2)C1C(=O)NCc1ccc(Cl)c(Cl)c1 (stereo not given),-0.175
12,O=c1[nH]c2ccc(S(=O)(=O)N3CCN(Cc4ccccc4)CC3)cc2[nH]c1=O,0.0265
13,CCOc1ccc(N2CC(C(=O)OC)CC2=O)cc1 (stereo not given),-0.028
14,NC(=O)C1CCN(C(=O)C2c3ccccc3C(=O)N3CCc4ccccc4C23)CC1 (stereo not given),-0.556
15,CC1CC1C(=O)OCC(=O)NCc1ccccc1Cl (stereo not given),0.266
16,O=C1c2ccccc2C(=O)N1c1nc(-c2cccs2)cs1,-0.507
17,NC(=O)CCNC(=O)c1ccc(Cl)cc1,-0.504
18,C/C(=N\NC(=O)OC(C)(C)C)c1cccc([N+](=O)[O-])c1,-0.272
19,C/C(=C\C(=O)OCC(=O)NCc1ccccc1)C(=O)OCC(=O)NCc1ccccc1,0.492
20,C[N+]1(CC2COC3(CCCCC3)O2)CCCC1 (stereo not given),-0.214
21,Cc1ccc(N2CS(=O)(=O)/C(=C/N(C)C)C2=O)cc1,0.0229
22,CCc1ccc(C(=O)COC(=O)C(CCSC)NC(=O)c2ccccc2)cc1 (stereo not given),-0.144
23,COc1cc(OC)cc(C(=O)NCCn2ccc3ccccc32)c1,0.165
24,Cc1noc(C)c1COC(=O)Cn1c(C)nc2ccccc21,0.194

row,SMILES,z-score
1,Cc1ccnc(SCC(=O)Nc2sc3c(c2C#N)CCCC3)n1,-0.556
2,O=C(CCCn1c(=S)[nH]c2cc3c(cc2c1=O)OCO3)N1CCN(C2CCCCC2)CC1,-0.008
3,O=S(=O)(c1ccc2ccccc2c1)n1cnc2ccccc21,-0.475
4,Cc1cc(C)nc(/N=C(\N)Nc2ccc(C)c([N+](=O)[O-])c2)n1,-0.413
5,O=C(Cc1ccc2c(c1)CCCC2)Nc1ccccc1Cl,-0.0266
6,COc1ccc(C(=O)c2ccc(Cl)c([N+](=O)[O-])c2)cc1,-0.0778
7,COc1ccccc1NC(=O)C(C)NS(=O)(=O)c1ccccc1 (stereo not given),0.359
8,COc1cc(C(C[N+](=O)[O-])c2c(-c3ccccc3)cc3ccccn23)cc(OC)c1OC (stereo not given),-1.28
9,CCOc1cc(CNc2ccccc2)cc(Br)c1OCc1ccccc1F,-0.148
10,O=C(CSCc1ccccc1)N/N=C/c1ccc(OCC(=O)N2CCCCC2)cc1,-0.0691
11,O=c1c2ccccc2nc(/C=C/c2ccc([N+](=O)[O-])o2)n1CCCO,0.0808
12,CCCCOC(=O)Nc1ccccc1C(=O)OC,-0.415
13,COC(=O)Cc1c(C)c2ccc(OC(=O)c3ccccc3)cc2oc1=O,0.141
14,O=C1CC(=Nc2ccccc2)NN1c1ccccc1,-0.137
15,COc1ccccc1NC(=O)CSc1nnc(C2CCCCC2)n1C,0.0978
16,CCCN1CCN(CCCNC(=O)C2CCN(c3nnc(-n4cccc4)s3)CC2)CC1,-0.0056
17,FCCCOc1ccc(-c2nccc(-c3ccc(F)cc3)n2)cc1,0.0825
18,NC(=O)C1CC(O)CN1c1nc(CN2CCOCC2)nc2scc(-c3ccccc3)c12 (stereo not given),-0.0691
19,O=C(CN(Cc1ccc(F)cc1)C(=O)C1CSC(=O)C1)NC1CCCCC1 (stereo not given),0.115
20,CC(NC(=O)C(=O)NN=C1CCCCCCCCCCC1)c1ccccc1 (stereo not given),-0.142
21,CC(C(=O)NC1=NCCS1)(C(F)(F)F)C(F)(F)F,-0.0611
22,CCc1nnc(NC(=O)C2Cc3ccccc3CN2S(=O)(=O)c2ccc(C)cc2)s1 (stereo not given),0.0333
